Experimental data taken from PMC12136788.
The list shows a part of the results.

B1: chr14:78183846:78183847:+_ENSG00000119705_ENST00000557342|hu_hu|hu_hu_hu_mus_False|1_38 (ssRNA)
RNA: GGGAGUUCUACAGUCCGACGAUCUCUCAGAAAUCUUUCUUCAUCAGAUGUUUGAGCUCCGUGCAAAGCCUUUGCUCUUUGAGCUUGAACGUGGAUCUUUACUCCAUAAAGCACUGUCAGAAAAGGUAAUUUUUUUUUCCGAAGCAACAGAGGAUUGAGCAUCA
B2: 31639799_31640545_924_3pUTR_ENSMUSG00000024037_ENSMUST00000171171|mouse|control|control (ssRNA)
RNA: GGGAGUUCUACAGUCCGACGAUCAGCACAAACUGGUCAUCAGGACUCACAGCCACGUCUAGCAGCAUGGAGAGGUGCCCAAGCUCCAGCCUGCCACAUCCAUCUGGCUCCAGCACCGAAAAGGAGUAGACGUCUCCAGACUUGCAACAGAGGAUUGAGCAUCA
B3: chr1:163117127:163117128:-_ENSG00000143248_ENST00000313961|hu_mus|hu_hu_hu_mus_False|98_98 (ssRNA)
RNA: GGGAGUUCUACAGUCCGACGAUCUGCUACAAAGGAUGGAGGAAAUAUCACAGGGCAACUUUUGGAAGCCUGACCAGAUGACUACUUGAUUAGCUCCUUAUAAAAUUCAGAGCGCACAAAGCGGGGCAGAGAAUCCUUCUCCAUCAACAGAGGAUUGAGCAUCA
B4: chr8:104061119:104061120:+_ENSG00000155097_ENST00000518738|hu_mus|FALSE|FALSE (ssRNA)
RNA: GGGAGUUCUACAGUCCGACGAUCCAAGUUCUCCUGAACUUUAUCUUUGCUGUCCUCCAGCACAUCAGCCAUGUACUGAGCCACUUUCUUGACCACACCUUCUACAAAUGCAUCCAGUUUAGCCAGUUCAUCCGACAAGCCAACCAACAGAGGAUUGAGCAUCA
B5: chr4:25749455:25749456:-_ENSG00000091490_ENST00000264868|hu_hu|hu_hu_hu_mus_False|18_48 (ssRNA)
RNA: GGGAGUUCUACAGUCCGACGAUCGCACUAUGACCUCUAGAAAAAUCCACAGGGGGAAAAAAUGUAAACCAAUGUACAAUGUUAUCGCCCUCCCUGCGUGUGGAGUGUUUGUCUCAAUAUUUCAAGGAGCUGCUGGAUUUGGGACAACAGAGGAUUGAGCAUCA
B6: chr16:18283852:18283853:-_ENSMUSG00000022718_ENSMUST00000009321|mus_hu|FALSE|FALSE (ssRNA)
RNA: GGGAGUUCUACAGUCCGACGAUCGGGGAAAUUCAAGGCCUCUUCAUCCACUCUGUCUCUCUGAACGAUUGCUUUAGCCGUGAACCCGCCUGCUCCUUCUUCAUCUAGCUCCAAAUUGUCAGUAAAAUCUUCUAACUCAUCGAGCAACAGAGGAUUGAGCAUCA
B7: chr1:39494447:39494448:+_ENSG00000168653_ENST00000372967|hu_mus|hu_hu_hu_mus_False|48_58 (ssRNA)
RNA: GGGAGUUCUACAGUCCGACGAUCGCACCGAGCGGCGUUCUUAUAGGGCUGUUCUGCGCUUAGGAACAUAAAGUGCCGAUCUAUGUUAAGGCCGAACUUUUUCUGUAUGUCAAGGAAAGGCAUGGCUCUGCAGUGCCCUUGUCACAACAGAGGAUUGAGCAUCA
B8: chr14:76904430:76904431:+_ENSMUSG00000022010_ENSMUST00000022587|mus_mus|mus_mus_mus_hu_True|58_78 (ssRNA)
RNA: GGGAGUUCUACAGUCCGACGAUCUGCAGCCAAAAACACCCUCGUGGAAAAAAAGAGCAAGCUCCAGCAGCCUUGUACAAACUAGAUAAAAUCUUCUGGCUUUCCGCAGCCCAGGGAGAAACAGAAAACGGCAGCCCUAAUUUACAACAGAGGAUUGAGCAUCA
B9: chr7:131071926:131071927:+_ENSG00000128585_ENST00000352689|hu_hu|motif|central (ssRNA)
RNA: GGGAGUUCUACAGUCCGACGAUCUUUCUUCAAAUUGCAAACAUGAGUUUUCUCAUAUUUUCCAAAUGUGAUAUUCUGAACGGUAGCAGGCCUUUCGAGCUUUAGAAUCAAGUACUGGGGAGGAUAGUUGCUCUCUGAAGACCACAACAGAGGAUUGAGCAUCA
B10: chr13:56191178:56191179:-_ENSMUSG00000015937_ENSMUST00000016081|mus_mus|motif|central (ssRNA)
RNA: GGGAGUUCUACAGUCCGACGAUCUUUAAGGUCAAUGUCAGCAUUGGUAGGAUUGAUUAUGGCCUCCACCUCAAAGCCGGCGGAAUUACUGAUUUCACUGUGAAUAAGGUUCAGCUUCUGGCCGAGGAAGAGGCUCUUGGUGGACAACAGAGGAUUGAGCAUCA
B11: chr6:38652254:38652255:-_ENSG00000124767_ENST00000373365|hu_hu|hu_hu_hu_mus_False|98_108 (ssRNA)
RNA: GGGAGUUCUACAGUCCGACGAUCCGAAAACUUCAUAAUGGGAAAAUCAAGCUUCUGCAGGAGGGUCAGUCCAAGAACCCUCGUAUAAAAAUCCAGGGACUUCUUAGGAUCCUUAAUUCUUAGCAUCGUUUGCUGCAGUAGAAACAACAGAGGAUUGAGCAUCA
B12: chr7:135333399:135333400:+_ENSG00000155561_ENST00000285968|hu_hu|motif|central (ssRNA)
RNA: GGGAGUUCUACAGUCCGACGAUCUGUCCAUAUACAAAGAAAGAAAUAGCAAAAUAUUUUUGGUCAUAAUUUAGAAAGAAACGGAUCGGUAAAAUGGAGACAAUUCUCCCCAAUUCAUCUCUCUCAUAGAAGAGCAUAAGCACGCAACAGAGGAUUGAGCAUCA
B13: chr2:223789231:223789232:+_ENSG00000123983_ENST00000392066|hu_hu|motif|central (ssRNA)
RNA: GGGAGUUCUACAGUCCGACGAUCUUUUGAAAUCUGUUCCAUUUUGUAAUUAUAGGCCAGAAUAAACAGAUUACGUUGAAAACGGCUCAUUUCACUGACUUUAUUCAUGACAUUUUUGUAGAUCCGAUCCAUGAUUUCCGGAACCAACAGAGGAUUGAGCAUCA
B14: chr12:110929880:110929881:-_ENSG00000111237_ENST00000549970|hu_mus|FALSE|FALSE (ssRNA)
RNA: GGGAGUUCUACAGUCCGACGAUCCUCAAUUCGUUCUACUUUGACGUCAUCUCCAAUUAGUUGAUAGACGUAAGUGACCACAGUAGAAGCCUGGAUGUCCAUCAGCACAAACGAUGGAAUAAUGUUUGUUUCCAAGGCAUUAUACAACAGAGGAUUGAGCAUCA
B15: chr14:53113150:53113151:-_ENSG00000197930_ENST00000395686|hu_hu|motif|central (ssRNA)
RNA: GGGAGUUCUACAGUCCGACGAUCUCCCCACAGACGACAUUUAAAACAACCAACACAAUCCAUAAUUCUUGAAAUAUUUCGGAAAUGCAGUCGAAAGUCCUCCUUUAGUUUGUGUGCUUCUUUUUUAUCCCCAGCAAAAAAUGACAACAGAGGAUUGAGCAUCA
B16: chr2:10930004:10930005:-_ENSG00000143870_ENST00000272227|hu_mus|FALSE|FALSE (ssRNA)
RNA: GGGAGUUCUACAGUCCGACGAUCAUCAUAGUCCACAGGAGACUCGCCUUUCUGAAAUAUCUUGAUUGUAGGGAAUCCUUUAAUCCCGUAUCGGCUGGCCAGAACCUGAUUCAUGGUGGCAUCCACAGCUGCCAGUUUCACUUUCAACAGAGGAUUGAGCAUCA
B17: 49646213_49650828_442_CDS_ENSMUSG00000028309_ENSMUST00000029989|mouse|control|control (ssRNA)
RNA: GGGAGUUCUACAGUCCGACGAUCUUCUGCUAGCUUACGAUUCUUGGAUUGCAGUGUUCGAAUGUCUAAUUCCUCCGUUGAAGAGACACCUCCUAACUUAAUUGUUUCCACGGUGGUCCCUGAAUCUUCAACAGCUGUCUUCUUCAACAGAGGAUUGAGCAUCA
B18: chr11:86532819:86532820:-_ENSMUSG00000047126_ENSMUST00000103186|perfect_dup|motif|central (ssRNA)
RNA: GGGAGUUCUACAGUCCGACGAUCCAUGGCUCUGAGACAUUCUAGGGAGUCUUCUACUGAUAAGGAACCAAAGUAGUUGACGGACCACUCAGGGUUAAGAAGAUGGGUGUGAACCACUGCACGUUUUAUAUCAUAUAAAUCAGUCAACAGAGGAUUGAGCAUCA
B19: chr10:126492284:126492285:-_ENSMUSG00000040502_ENSMUST00000040307|mus_mus|motif|central (ssRNA)
RNA: GGGAGUUCUACAGUCCGACGAUCAUGCACACCACUAACCCACACCCCCAGCCCUUAGACCCACAUUCCCCAAAUCCUUUCGGUAAUAAAUAAGAGUUCUUACGCCUCUCUCUCUCAGUAAUACCAUUAGCCGGGCACACCUGGCAACAGAGGAUUGAGCAUCA
B20: chr3:90158266:90158267:+_ENSMUSG00000042390_ENSMUST00000049382|mus_mus|FALSE|FALSE (ssRNA)
RNA: GGGAGUUCUACAGUCCGACGAUCACCAUUCUUUUCUUGCUUCCAGUGAGGGGUGAAAUCUGUGCGGCACUGGGCACAUACAAAGGGUUCGACCCUCAGAAGUGAGGCACAGUUUUUGCCUUGGCUGUCAAUGACACUCUGUACCAACAGAGGAUUGAGCAUCA
B21: chr7:125984895:125984896:+_ENSMUSG00000030982_ENSMUST00000106553|mus_hu|FALSE|FALSE (ssRNA)
RNA: GGGAGUUCUACAGUCCGACGAUCGGCCAAAGCUUAAAACAAUUUGUACAUAUGUAAAAAGAAAAGAAAAAUGAGAAACCUAAAUUGCCGUAAGAGUUCAGGGCAGCAGAGCAGAUCUUUCUGGAUUUGGCACCAGAGUCCCUGCAACAGAGGAUUGAGCAUCA
B22: chr9:131455196:131455197:+_ENSG00000119335_ENST00000372688|hu_mus|motif|central (ssRNA)
RNA: GGGAGUUCUACAGUCCGACGAUCAAAUUCUUUGGAGAGAACUUUAUUUUCAAAGUAAGGAUUUUCAUCAAAAUAAAAAUCGGUUCUGUAACCUGAUUUAAUGUCUUCAAAUUCUGUCACUUCAACUCUGGUCAAAUAAUGCAGCAACAGAGGAUUGAGCAUCA

molecular target: T1, UNK ZnF1-3 (human, UniProt Q9C0B0 31-174); experiment: nsRBNS (natural sequence RNA bind-n-seq); RBNS binding buffer (assumed for nsRBNS): 25 mM Tris pH 7.5, 150 mM KCl, 3 mM MgCl2, 0.01% Triton X-100, 500 ug/ml BSA, 20 U/ml SUPERase-In, 4 C; UNK is unkempt and MSI1 is Musashi-1; names of the RNAs are library labels; protein concentration not given here; high values mean tight binding
T1 sequence: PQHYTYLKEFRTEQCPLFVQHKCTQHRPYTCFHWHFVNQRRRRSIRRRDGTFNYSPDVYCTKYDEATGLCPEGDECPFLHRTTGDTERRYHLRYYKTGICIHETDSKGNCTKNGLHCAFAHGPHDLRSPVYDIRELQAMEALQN

Row | Binder | binding signal [enrichment R]
1 | B1 | 0.875
2 | B2 | 1.39
3 | B3 | 1.61
4 | B4 | 0.818
5 | B5 | 1.31
6 | B6 | 1.18
7 | B7 | 0.62
8 | B8 | 2.41
9 | B9 | 0.942
10 | B10 | 0.878
11 | B11 | 1.06
12 | B12 | 1.28
13 | B13 | 0.593
14 | B14 | 1.02
15 | B15 | 1.58
16 | B16 | 1
17 | B17 | 0.603
18 | B18 | 1.08
19 | B19 | 1.52
20 | B20 | 0.745
21 | B21 | 2.87
22 | B22 | 0.57
